Assay results published in PubChem BioAssay AID602332 (National Center for Advancing Translational Sciences (NCATS), 2012).
The campaign covered roughly 420,000 compounds. About 75 (0.02%) were called active. Inconclusive means that the source gave no clear call. Such entries were picked first, then a sample of the others. Calls come from the whole dose curve; as a rule, active = well fitted activation curve with a large enough effect; inconclusive = small, poorly fitted or top-dose-only effect; inactive = no such curve, though single readings can be large or run the other way. A potency beside an inconclusive call is a rough fit, not a confirmed value.

test: qHTS for Inducers of the Endoplasmic Reticulum Stress Response (ERSR) in Human Glioma: qHTS; conditions: U87-MG GRP78 promoter luciferase reporter, 16 h; activation: hits give high values; note: nearly all actives have a fitted effect of over 35% in size; for activation: % of control where 0% means no effect
Summary of the method: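 Stably transfected U87-MG human glioma cells carrying a GRP78-based luminescent sensor were seeded at 1000 cells/well, pin-dosed with compounds and incubated 16 h. Luciferase reagent was then added, and end-point luminescence was read after 10 min at room temperature.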
Potency is the fitted concentration of half-maximal effect; tags give direction and shape of the fitted curve.

Potency, active:
CCCCc1cc(O)c(CCCC)c(O)c1 22.4 µM, Cc1ccc2[nH]c(C)cc(=O)c2c1 44.7 µM

Potency, inconclusive:
O=C(O)/C(=C/c1c(C(=O)O)[nH]c2cc(Cl)cc(Cl)c12)c1ccccc1 58.5 µM [activator, single point], CCOC(=O)C1CCN(Cc2cc(C(C)C)c(O)c(C(C)C)c2)CC1 44.7 µM [activator, partial curve, poor fit], COc1ccc(C(=O)NNC(=S)NC(=O)c2ccc(Cl)cc2)cc1 44.7 µM [activator, partial curve, poor fit], CCOC(=O)Nc1ccc(C(=O)/C=C/c2ccccc2)cc1 50.1 µM [activator, partial curve, poor fit], O=C(CCl)Nc1cccc2ncccc12 44.7 µM [activator, partial curve, poor fit], O=C(c1csnn1)N1CCC2(CCCN(C(c3ccccc3)c3ccccc3)C2)CC1 44.7 µM [activator, single point], COc1cc([N+](=O)[O-])cc(/C=N/NC(=O)c2ccc(NC(=O)c3ccc(C)cc3)cc2)c1O 17.8 µM [activator, single point], COc1ccc(-c2nc3ccccc3s2)cc1NC(=O)c1ccc(C#N)cc1F 50.1 µM [activator, single point], O=[N+]([O-])c1cccc(/C=N/Nc2nccnc2Cl)c1 11.2 µM [activator, partial curve, poor fit], COc1ccc(C2=NOC(C(=O)N3CCOCC3)C2)cc1OC (configuration not stated) 12.6 µM [activator, single point], Cc1ccccc1CN1C(=O)c2ccccc2Sc2ccc(C(=O)O)cc21 50.1 µM [activator, single point], COc1ccc(C(=O)NC(=S)NNC(=O)c2cccc(C)c2)cc1 44.7 µM [activator, single point], CSc1ccc(S(=O)(=O)NCC(=O)OCC(=O)N2CCC(C)CC2)cc1[N+](=O)[O-] 50.1 µM [activator, single point], CCOC(=O)CSc1ccc(-c2nc3cc(C)c(C)cc3[nH]2)cn1 14.1 µM [activator, single point], Cc1onc(-c2ccccc2)c1C(=O)NC(=S)NNC(=O)c1ccccc1O 50.1 µM [activator, single point], Oc1cccc(C=Nc2cccc3ccccc23)c1O 12.6 µM [activator, full curve, poor fit], CCOC(=O)/C=C1\CN(Cc2ccc(OC)cc2)S(=O)(=O)c2ccc(C(F)(F)F)cc21 11.2 µM [activator, full curve, poor fit], CN(C)Cc1ccccc1-c1nc(NC2CCNCC2)c2ccccc2n1 50.1 µM [activator, single point], N#Cc1c(-c2ccc(F)cc2)cc(-c2cccs2)nc1SCC(=O)O 56.2 µM [activator, single point], c1ccc(OCCn2cnc3ccccc32)cc1 10 µM [activator, partial curve, poor fit], COC(=O)[C@@H]1CCCN1C(=O)c1cnn(-c2nccc(-c3cc(C)sc3C)n2)c1C1CC1 10 µM [activator, partial curve, poor fit], Cc1cc(C)cc(NC(=O)c2ccc([N+](=O)[O-])o2)c1 11.2 µM [activator, single point], Oc1ccccc1C1C=C(c2ccc3c(c2)OCO3)NC(c2c(F)cccc2Cl)N1 (configuration not stated) 12.6 µM [activator, single point], CCOC(=O)c1ccc2[nH]c(C)c(C)c2c1 5.62 µM [activator, full curve, poor fit], Cc1ccccc1OC(C)C(=O)NCCC1=CCCCC1 (configuration not stated) 2 µM [activator, full curve, poor fit], C(=N\Nc1nc2ccccc2[nH]1)/c1c[nH]c2ccccc12 22.4 µM [activator, single point], O=C(/C=C/c1ccccc1)c1ccccc1O 14.1 µM [activator, single point], O=C(Nc1ccccc1Cl)c1ccc([N+](=O)[O-])o1 22.4 µM [activator, single point], O=c1cc(-c2ccc(O)c(O)c2)oc2cc(OC3OC(CO)C(O)C(O)C3O)cc(O)c12 (configuration not stated) 28.2 µM [activator, partial curve, poor fit], Cc1cc(Br)c2c(c1)/C(=C/C(=O)c1cccs1)C(=O)N2 28.2 µM [activator, single point], O=C1C2C(c3cccc(/C=C/c4ccccc4)c3)CC=CC2C(c2ccc3ccccc3c2)N1Cc1ccccc1 (configuration not stated) 28.2 µM [activator, single point], Cc1nc2c(OCc3ccc(Cl)cc3Cl)cccn2c1N(C)Cc1cccs1 50.1 µM [activator, single point], COc1ccccc1CN1CC(C(=O)N2CCCCO2)CCC1=O (configuration not stated) 31.6 µM [activator, partial curve, poor fit], Oc1ccc(NCc2ccccc2OCc2ccc(Cl)cc2)cc1 12.6 µM [activator, partial curve, poor fit], COC(=O)c1sc(-c2ccc(C(C)(C)C)cc2)cc1NC(=O)/C=C/C(=O)O 25.1 µM [activator, single point], NC(=O)COC(=O)c1cc(-c2ccco2)nc2ccccc12 63.1 µM [activator, single point], O=CC1=C(c2ccccc2)Oc2ccccc2O1 28.2 µM [activator, single point], N/C(=N\OC(=O)c1ccc(Cl)c(Cl)c1)c1cccnc1 11.2 µM [activator, partial curve, poor fit], O=C(Nc1ccccc1)Nc1cc(OCC(F)(F)F)cc(OCC(F)(F)F)c1 10 µM [activator, full curve, poor fit], O=C(C=Cc1ccccc1O)c1ccccc1O 12.6 µM [activator, single point], O=C(N/N=C/C=C\c1ccccc1[N+](=O)[O-])c1cc(-c2ccc3ccccc3c2)n[nH]1 11.2 µM [activator, full curve, poor fit], Cc1sc(NC(=S)NC(=O)C(C)(C)C)c(C(N)=O)c1C 7.08 µM [activator, partial curve], COc1ccc(C(NC(=O)c2cccnc2)c2cc(Cl)c3cccnc3c2O)cc1OC (configuration not stated) 63.1 µM [activator, partial curve, poor fit], Oc1ccccc1C1C=C(c2ccc3c(c2)OCO3)NC(c2cccc(Cl)c2)N1 (configuration not stated) 50.1 µM [activator, partial curve, poor fit], CCOC(=O)c1cc(-c2ccc(C)cc2)n(CC(=O)Nc2ccc(OC)c(Cl)c2)c1C 44.7 µM [activator, partial curve, poor fit]

activation, inactive:
O=C1NC(=S)S/C1=C\C=C\c1ccc([N+](=O)[O-])o1 -16.3%, CCCCc1nc(Cl)c(C#N)c2c1CCCC2 -1.27%, O=C1c2ccccc2C(=O)N1Cc1nn2c(-c3ccc(Cl)cc3)nnc2s1 3.91%, Cc1ccc(NC(=O)/C(C#N)=C\c2ccc(-c3ccc(Cl)cc3)o2)c(C)c1 -1.9%, O=C(CSc1nccc(=O)[nH]1)Nc1ccc(S(=O)(=O)N2CCOCC2)cc1 -5.4%, Cc1ccc(NC(=O)c2cc(-c3cccs3)nc3ccccc23)nc1 -3.15%, Cc1ccc(-c2nc(CSCC(=O)N3CCN(C(=O)c4ccco4)CC3)c(C)o2)cc1 -2.65%, CCN1CCc2c(sc(NC(=S)NC(=O)c3ccco3)c2C(N)=O)C1 0.663%, Cc1ccc(Nc2c(-c3ccccn3)nc3cc(C)ccn23)cc1 -6.81%, CC1=C(C(=O)N2CCOCC2)C(c2ccc(Br)cc2)NC(=S)N1c1ccccc1 (configuration not stated) 1.03%, CCN(C(=O)CSc1ccc2ccccc2n1)C1CCCCC1 0.0405%, O=C(NCc1cccs1)C1CCCN(S(=O)(=O)c2ccc3c(c2)OCO3)C1 (configuration not stated) -1.29%, N#Cc1c(N)nc(SCC(=O)OCc2ccccc2)c(C#N)c1-c1ccco1 -5.66%, Cc1ccc(Cn2ccc(NC(=O)CCSc3nc(-c4ccco4)cc(C(F)(F)F)n3)n2)cc1 -7%, CCc1ccc(OCCn2c(C3CC(=O)N(Cc4ccc(F)cc4)C3)nc3ccccc32)cc1 (configuration not stated) -6.75%, Nc1nn(-c2ccccc2)nc1C(=O)OCc1ccccc1 1.81%, CC(C)CCNC(=S)Nc1ccccc1F -0.388%, O=[N+]([O-])c1ccc2c(c1)nc1n2CCN(c2ccccc2)C1 3.75%, O=C(NC1CCN(Cc2ccccc2)CC1)c1ccc(S(=O)(=O)NCc2ccco2)cc1 -2.48%, c1cncc(-c2cc(NCc3cccs3)ncn2)c1 -2.48%
